“And” between values parts separate entries of the source, which are not always exact repeats. Equal entries are not always repeated. Some of the results follow. Shown are side measurements of this screen, not its main read-out; they come without a call. Most of these compounds were active or inconclusive in the main read-out, so they are no random draw.

A short description of this assay: hypoxia reporter signal reduction in M. tuberculosis – fluorescence, absorbance growth readout, primary screen (AID 1159583). Particulars: M. tuberculosis hypoxia-regulated fluorescent reporter, measured here: M. tuberculosis growth (absorbance), stronger effect = higher value, concentration not given here.
`COc1ccc(C(=O)COC(=O)CNC(=O)c2ccc(C)s2)c(OC)c1`: the growth inhibition was 73.9%.
Consider `C(=C\c1nc(N2CCCC2)c2ccccc2n1)/c1ccccc1`, for which the growth inhibition was found to be 11.5%.
For the compound `Cn1cc(/C=C/c2cc[n+](C)cc2)c2cc(Cl)ccc21`, the growth inhibition is 2.27%.
The figure for `O=C(/C=C/c1cn(CC(O)CN2CCCCC2)c2ccccc12)c1ccccc1` (stereo not given) is 53.2%.
Take `CCOC(=O)c1ccc(NC(=O)Cn2ncc(Cl)c(Cl)c2=O)cc1`: the growth inhibition was determined as 18.5%.
On to `COc1ccc(C)cc1-n1nnnc1SC(C)C(=O)NC1CCCC1` (stereo not given), for which the growth inhibition stood at 61.6%.
As for `CC(=O)OCC1=C(C(=O)O)N2C(=O)C(NC(=O)COc3ccc(F)cc3)C2SC1` (stereo not given), the figure is 22.6%; as for `CN(C)c1ccc(S(=O)(=O)N2CCCCC2)cc1NC(=O)CCNC(=O)c1ccccc1Cl`, 58.4%.
As to `Cc1c2ccncc2c(C)c2c1[nH]c1ccccc12`, the growth inhibition stood at 15.6%.
Consider `CCCC1CC(C(=O)NC(C(C)Cl)C2OC(SC)C(O)C(O)C2O)N(C)C1` (stereo not given), for which the growth inhibition was 23% and 26.2% and 14.6%.
In the case of `Cc1cc2[nH]c3c(c[n+](C)c4ccccc34)c2cc1C`, the growth inhibition is 27.6%.
As for `CC(=O)NS(=O)(=O)c1ccc(Nc2ccc([N+](=O)[O-])c3nonc23)cc1`, the figure is 4.49%; as for `O=C(Cn1nnc(-c2ccc(F)cc2)n1)Nc1cccc(S(=O)(=O)N2CCCC2)c1`, 78.1%.
Consider `O=C(NCc1cccc(Cl)c1)c1cccc(S(=O)(=O)N2CCCCC2)c1`, for which the growth inhibition was found to be 55.1%.
Regarding `CCN1C(=O)/C(=C2\C=Cc3ccccc3N2CC)SC1=S`, the growth inhibition amounted to 6.21%.
Take `O=C(c1ccc([N+](=O)[O-])o1)N1CCc2ccccc2C1`: the growth inhibition was found to be 20.2%.
On to `O=C(O)CCN1C(=O)/C(=C\c2ccncc2)SC1=S`, for which the growth inhibition was determined as 23%.
Regarding `CCOC(=O)/C(C#N)=C/C=C1\C=Cc2ccccc2N1CC`, the growth inhibition was 12%.
As for `Cc1ccc(S(=O)(=O)N2CCN(C(=O)c3cc(S(=O)(=O)N4CCOCC4)c(Cl)cc3Cl)CC2)cc1`, the growth inhibition turned out to be 60.2%.
For `CCOc1ccc2oc(C(=O)OCC(=O)N3C(C)CCCC3C)c(C)c2c1` (stereo not given), the growth inhibition stood at 53.7%.
`O=C(Nc1cccc(Cl)c1)c1cc(N=Nc2ccc([N+](=O)[O-])cc2Cl)ccc1O`: the growth inhibition was determined as 6.64%.
As for `COc1cc(/C=C/c2ccc3c([N+](=O)[O-])cccc3n2)ccc1OCC(=O)O`, the figure is 47.2%.
In the case of `CCCN(CC(=O)Nc1ccccc1C)C(=O)CCl`, the growth inhibition came out at 21.4%.
`Cc1ccccc1NC(=O)COC(=O)c1cc(S(=O)(=O)N2CCOCC2)ccc1C`: the growth inhibition worked out at 70.6%.
Turning to `CC(=O)c1cccc(NC(=O)CCCOc2ccc(C)cc2)c1`, the growth inhibition was -1.34%.
As to `CCOc1ccccc1-c1c2cc(O)c(=O)cc-2oc2cc(O)c(O)cc12`, the growth inhibition is -41.8%.
The figure for `Cc1oc(-c2cccs2)nc1CSCC(=O)N1CCC2(CC1)OCCO2` is 53.2%.
On to `CC(C)CCn1c(=O)c2ccccc2n2c(CCl)nnc12`, for which the growth inhibition amounted to 17.3%.
In the case of `Cc1ccccc1NC(=O)CSc1ccc(-c2ccccn2)nn1`, the growth inhibition came out at 17.3%.
As for `CC(C)(C)C(=O)Nc1ccc2c(c1)OCCOCCOc1cc(NC(=O)C(C)(C)C)ccc1OCCOCCO2`, the figure is 21.7%; as for `CN(C)CCCN(C(=O)c1ccc2c(c1)CCCC2)c1nc2ccc(Cl)cc2s1`, 25.2%; as for `CN(C)CCOc1ccc(-c2c(-c3ccccc3)sc3ccccc23)cc1`, 30.1%.
Regarding `CC1CCC2[C@@H](C)C(=O)OC3O[C@]4(C)CCC1C32OO4` (stereo not given in full), the growth inhibition was found to be 10.7%.
With `CCc1nnc(NS(=O)(=O)c2ccc(Nc3ccc([N+](=O)[O-])c4nonc34)cc2)s1`, the growth inhibition is 7.66%.
The figure for `CCn1nc(C(=O)Nc2cccc(S(=O)(=O)N3CCCC3)c2)c2ccccc2c1=O` is 53.2%; for `CC(=O)c1ccc(NC(=O)c2ccc([N+](=O)[O-])o2)cc1` it is 43.3%; for `COc1ccc(NS(=O)(=O)c2ccc(N3CCOCC3)c(N)c2)cc1` it is 50.8%.
As to `COc1ccc(C2=CSC(N=Cc3ccc(F)cc3)=NN2)cc1`, the growth inhibition came to 60.2%.
For the compound `CCOP(=O)(Oc1ccccc1)c1c([N+](=O)[O-])cc(C(F)(F)F)cc1[N+](=O)[O-]` (stereo not given), the growth inhibition amounted to 24.2%.
The figure for `COc1ccc(Cl)cc1NC(=O)C(C)OC(=O)Cn1cc(C(F)(F)F)ccc1=O` (stereo not given) is 62.1%; for `Cc1nc(SCC(=O)NCc2ccc3c(c2)OCO3)nc(C)c1C` it is 53.7%.
With `CCOC(=O)C1=C(C)N=c2sc(=Cc3cccc([N+](=O)[O-])c3O)c(=O)n2C1c1ccc(OC)cc1OC` (stereo not given), the growth inhibition is 3.49%.
The figure for `Cn1c(COc2ccc(Cl)cc2)nnc1SCC(=O)NC1CC1` is 74.3%; for `COc1cc(C(=O)Nc2cc(S(=O)(=O)N3CCOCC3)ccc2N2CCOCC2)ccc1OC(F)F` it is 52.7%.
In the case of `Cc1ccc(NC(=O)c2cc(S(=O)(=O)N3CCCCC3)ccc2N2CCOCC2)cc1S(=O)(=O)N(C)C`, the growth inhibition came to 61.6%.
The figure for `CN1CCS/C1=C\C=C1/SC(=S)N(CC(=O)O)C1=O` is 8.01%; for `CC(=O)N1CCc2c(sc(NC(=O)c3ccc([N+](=O)[O-])o3)c2C#N)C1` it is 14.2%.
In the case of `CCN(CC)c1ccc(/C=C2\C(=O)NC(=S)N(c3ccc(OC)cc3OC)C2=O)o1`, the growth inhibition was 5.48%.
As for `CCN(CC)c1ccc(C=C2C(=O)N(C)C(=S)N(C)C2=O)o1`, the figure is 7.89%.
`Fc1cccc(CON=Cc2c(-c3ccccc3)nc3ccc(Cl)cn23)c1`: the growth inhibition is 24.1%.
Regarding `Cc1c(C(=O)N2CCN(S(=O)(=O)c3ccc(F)cc3)CC2)oc2ccccc12`, the growth inhibition was determined as 20.1%.
Turning to `CN(C)CCOc1nc(-c2ccccc2)nc2c1oc1ccccc12`, the growth inhibition was 14.6%.
Turning to `CCOC(=O)N1CCN(C(=O)CSc2nc(-c3cccc(C)c3)ns2)CC1`, the growth inhibition worked out at 27%.
For `O=C(OCC(=O)C12CC3CC(CC(C3)C1)C2)c1ccc(CO)cc1`, the growth inhibition was 55.5%.
As to `c1ccc(CSc2nnc(-c3cccnc3)o2)cc1`, the growth inhibition stood at 25.8%.
Turning to `Brc1cc(Br)c2nc3c(cc2c1)CCC3`, the growth inhibition was 33.8%.
On to `NS(=O)(=O)c1cccc(NC(=O)COC(=O)c2ccc(S(=O)(=O)N3CCOCC3)cc2)c1`, for which the growth inhibition is 56.5%.
In the case of `O=C(/C=C/c1ccc(S(=O)(=O)N2CCOCC2)cc1)NCCc1ccc(C(F)(F)F)cc1`, the growth inhibition was 59.8%.
Take `Cc1ccc(N(CCC#N)C(=O)CCl)cc1C`: the growth inhibition worked out at 22.6%.
The figure for `Cc1nnc(NC(=O)CSc2ccc(-c3ccccn3)nn2)s1` is -7.39%; for `O=C(COC(=O)c1ccccc1NCCO)NCC1CCCCC1` it is 64.9%.
For the compound `CC=CC(=O)Nc1cccc(C2=NOC3(C2)CC(C(N)=O)N(C(=O)c2cc([N+](=O)[O-])cc([N+](=O)[O-])c2)C3)c1` (stereo not given), the growth inhibition was 20.2%.
As to `O=C(Nc1ccc(S(=O)(=O)N2CCOCC2)cc1)c1ccc([N+](=O)[O-])s1`, the growth inhibition came to 16.7%.
Turning to `Cc1ccc(C)c(NC(=O)CN2C(=O)NC(C)(c3ccc4c(c3)OCCO4)C2=O)c1` (stereo not given), the growth inhibition worked out at 73.4%.
On to `Cn1nc(C(=O)OCC(=O)NCc2ccc(Cl)cc2)c2ccccc2c1=O`, for which the growth inhibition turned out to be 68.7%.

(Values after PubChem BioAssay AID1159583 (ICCB-Longwood Screening Facility, Harvard Medical School, 2016).)
